Results from the supplement of paper PMC3334620.
In all, about 33,000 sequences were measured (“E-score (-0.5 to 0.5)”: median about -0.012, highest 2% from about 0.27 on). Some of the results follow.

molecular target: T1, Vhr1 (UniProt P40522); assay: PBM E-score (8-mer binding enrichment) (E-score (-0.5 to 0.5)); higher = stronger / more preferred TF binding; most listed sequences are background and not binding sites; details: protein concentration: 200 nM; construct: GST-full length
T1 sequence: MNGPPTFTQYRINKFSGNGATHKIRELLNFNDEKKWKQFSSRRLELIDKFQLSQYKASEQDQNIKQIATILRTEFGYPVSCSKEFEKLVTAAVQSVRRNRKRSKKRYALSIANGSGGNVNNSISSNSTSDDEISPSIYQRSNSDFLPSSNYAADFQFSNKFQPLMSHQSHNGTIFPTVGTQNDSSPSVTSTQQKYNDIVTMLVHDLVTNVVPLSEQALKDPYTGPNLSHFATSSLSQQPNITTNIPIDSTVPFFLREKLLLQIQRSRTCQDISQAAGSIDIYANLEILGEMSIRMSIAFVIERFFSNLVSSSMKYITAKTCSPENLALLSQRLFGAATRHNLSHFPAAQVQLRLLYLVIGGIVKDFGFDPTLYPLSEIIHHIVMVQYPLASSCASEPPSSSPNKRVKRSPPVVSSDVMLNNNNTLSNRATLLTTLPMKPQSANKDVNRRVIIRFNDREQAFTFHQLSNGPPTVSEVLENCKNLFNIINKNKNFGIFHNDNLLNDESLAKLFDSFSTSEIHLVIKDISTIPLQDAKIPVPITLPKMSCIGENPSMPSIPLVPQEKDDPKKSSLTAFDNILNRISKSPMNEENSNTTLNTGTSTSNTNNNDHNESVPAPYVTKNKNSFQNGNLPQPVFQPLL
Procedure: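 Universal 'all 10-mer' protein binding microarrays (Agilent AMADID 015681) probed with GST-tagged S. cerevisiae TFs (full-length or DBD) made by in vitro transcription/translation (PURExpress), about 100-200 nM. Bound TF was detected with fluorescent anti-GST. Each ungapped 8-mer (which stands for itself and its reverse complement) is scored by the PBM enrichment score (E-score), a modified Wilcoxon-Mann-Whitney statistic from -0.5 to +0.5, computed with the Universal PBM Analysis Suite. Scale: above 0.35 generally sequence-specific binding.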

Sequence	PBM E-score
ATGTTCAG	-0.102
ATAAGAAG	-0.11
ACAAGAGT	0.108
GAGGGGGC	-0.155
ATACGCCC	-0.103
CATTACTA	0.107
AGGTTCTA	-0.0802
ATCCACGA	0.129
CAAGCAGC	-0.0665
ACGGTCTA	-0.163
ACGTATTG	-0.0593
GCACGGAC	-0.112
TGCTTACA	0.0554
CGCGTCTA	-0.0285
AGCAACAG	-0.0889
GCTCCGGA	0.0316
ATACATCC	0.191
CAATTTCC	-0.195
GATGCAGC	-0.101
CAACTAGG	0.0954
AGCGCTGG	0.0676
AGGCCGAT	-0.117
AACTTCCA	-0.112
AATCCATT	0.113
CGGGAGCA	-0.121

Sequence	PBM E-score
CACTTTGC	-0.0419
GGTGCAGA	-0.206
ATGAACCC	0.225
TATGTCCA	-0.0889
GCAGCAAC	0.126
AAGCTAAC	0.0321
ATATTGAG	0.106
CTCCCTGA	0.109
CACCAAAG	-0.0664
CTACCTGA	-0.00401
CCGTCTTC	0.0464
AATTGCCT	-0.131
AGACCCAT	0.157
ACGGAGAA	-0.0931
AAATAGTC	0.0418
GAGAAGGC	-0.24
CGAGGTGA	0.107
CCATGGGG	0.0665
CACTCCCC	0.0503
GGAATCTA	-0.0388
CACTCTGG	0.0343
AGCCAATA	-0.156
CACCACCC	0.0779
ATGATCTC	-0.00737
CAACCGCA	0.0762

Sequence	PBM E-score
CGTACTTA	-0.0118
AACTTGGG	0.0097
GACCGCCA	0.0067
CGTGAGTA	0.21
AAGCTCGC	-0.00364
GTTTGCAA	0.175
AGGTTGTC	-0.0977
CGACGCTC	-0.0422
ATATTTTC	0.14
AAGGCCTC	-0.215
ACGCTGTC	-0.122
CTGCACAC	0.045
ACTCAAGA	0.0906
CTGGGCCC	-0.251
CTACGAGC	-0.0087
CCTAGTCG	0.0391
AACGACCG	-0.0534
AGATAGCG	-0.114
AGTAAATA	-0.0184
ATCTCTGC	0.0623
ATGGCTTG	0.0554
ATTTACTG	0.0372
AACCTGTG	0.02
AATTGGGA	-0.0558
TAACGCTA	-0.116

Sequence	PBM E-score
AACAATGT	-0.00812
CGATTCGA	0.255
CCGCGCAA	-0.026
AATGCCCC	-0.148
ACACTAGT	0.0508
GATAGCTA	-0.0679
CGACTGAC	-0.135
GTACCAGA	-0.0612
CAAATATC	0.0967
CCCGTACA	-0.13
ACGCTTCT	-0.117
GAGCTGGA	-0.0872
GCCAACAC	-0.015
GTGCAGTA	0.0719
CAATCTTC	0.104
ATCTCGTG	-0.111
ATTCCCCC	-0.205
TGGTTTAA	-0.113
CACGCCCC	0.0402
ATACGCAG	0.0799
ATCACTCC	0.0947
CTTTAATA	0.0826
ACATGCAG	-0.0126
CTACCGAG	-0.0848
CTAGTGGC	-0.14

Sequence	PBM E-score
AACAGGTA	-0.099
AATAGGCC	-0.259
AGACAAAC	-0.0742
CGTCGAAC	-0.159
CCACCCGG	0.0735
AACAAACT	0.0344
ACTCAAAG	0.0428
CAAACGAA	-0.127
ATGAGGTC	0.0111
AGTGGTCA	-0.0615
CCGGATGA	0.0435
AAGCGTGA	0.0681
AGCAAGCC	-0.0172
CCTCGACC	-0.0347
CTCAGCGA	0.0396
GTTGTCTA	-0.0562
ATCGACAG	0.0207
CACACAGA	0.263
AGCCTAAG	-0.262
TATCGATA	0.193
ACCTGGAT	0.103
GGAGTAGA	0.00284
ACGCGTAT	0.0675
ACTGTCCA	-0.208
CCAAGACG	-0.141

Sequence	PBM E-score
CTTGTCGA	-0.218
AGCTGGTC	-0.172
AACCTATA	0.00671
CGTCTAAG	-0.0385
AGAGCCAT	0.0261
GCCAGTCC	-0.0716
CTGCACTC	0.0835
AGACCCCG	0.177
CAGTTCCG	0.0373
AAATTTGG	-0.188
ATAAGCGC	0.057
ATGAGTCC	0.389
ACTGTTTC	-0.0525
AGCCCGAC	0.0296
ACCTATCT	-0.0256
GACCCCTA	-0.176
GATCGAGC	0.141
CCCACGTC	-0.0264
GACAAAGC	-0.181
AATGAGGG	0.0336
CTTGCACA	0.0429
CGCGGCAG	0.1
TGATCACA	0.159
AGCAATGA	0.0423
GGAGTTCA	-0.0497

Sequence	PBM E-score
AGCAACGG	0.0294
ATCGGTTG	0.0695
ATGAGGCG	-0.0535
ACGATAGT	0.156
CTGGGGGC	-0.332
TAGAACTA	-0.112
CGGCAATA	-0.0777
AGCCAGGC	0.17
CCTACGTA	-0.0698
CTGGATCA	0.0971
AAATGGCG	-0.305
CGAATTCA	-0.0677
AATCTCAT	0.113
CTAGGGGA	-0.122
CAGTCACA	0.348
CCGTCTGC	-0.0839
AAATGTCG	-0.131
AGCCAAAT	-0.0105
TATTACAA	-0.0398
ACAACGAG	0.0559
ATGCGGTA	0.0789
TCGTCGCA	0.111
